Source: PubChem BioAssay AID624171 (National Center for Advancing Translational Sciences (NCATS), 2012)
Screen size: about 410,000 compounds; about 1,200 (0.29%) were called active. Inconclusive results, whose numbers are uncertain, are shown with a selection of clear calls. Calls follow the shape of the dose curve; as a rule, active = well fitted activation curve with a large enough effect; inconclusive = small, poorly fitted or top-dose-only effect; inactive = flat fitted curve, though single readings scatter. Potencies beside an inconclusive call are fits to weak or partial responses and may not hold up.

Test: qHTS of Nrf2 Activators; also: nearly all actives have a fitted effect of over 65% in size; as to activation: % of control where 0% means no effect
Settings: AREc32 ARE-luciferase reporter (MCF7-derived line), luminescence, 24 h; activation: at 46.1 µM (top of the series)
Method in brief: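 Reporter line AREc32 (ARE-Fluc), seeded overnight in OPTI-MEM with 5% FBS; compound pin-transferred, 24 hr at 37 deg C, 5% CO2; luminescent read-out.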
Potency is read from the fitted curve at half-maximal effect; tags tell the direction and shape of the fitted curve.

Potency, active:
O=C(CN1CC(=O)Oc2ccccc21)OCC(=O)c1cccc(Br)c1 12.6 µM
O=C(/C=C/c1cccs1)c1cc(Cl)ccc1O 14.1 µM
CC(=O)c1sc(Nc2ccccn2)nc1C 11.2 µM
O=C(COC(=O)/C=C/c1ccccc1[N+](=O)[O-])NCc1ccco1 14.1 µM
O=C(N/N=C/c1c(Cl)cccc1Cl)c1ccccc1F 5.01 µM
Cc1cc(C)cc(N(C(=O)c2cc3ccccc3oc2=O)C2C=CS(=O)(=O)C2)c1 (configuration not stated) 14.1 µM
Cc1ccc(O)c(NC(=O)c2cc(C)no2)c1 12.6 µM
COc1ccc(COc2ccsc2C(=O)Nc2ccc(Cl)cc2)cc1 8.91 µM
Brc1cccc(-c2nc(-c3ccncc3)no2)c1 11.2 µM
O=[N+]([O-])c1cc(Cl)cc2c1nc(NCCO)c1ccccc12 8.91 µM

Potency, inconclusive:
Cc1ccc2c3c(cccc13)-c1ccccc1C2=O 12.6 µM [activator, partial curve]
COc1cccc(/C=C2/SC(=S)N(CCC(=O)N3CCOCC3)C2=O)c1 6.31 µM [activator, partial curve, poor fit]
C=CS(=O)(=O)N(Cc1ccccc1Br)[C@H](CO)CC(C)C 20 µM [activator, single point]
COc1ccc2c(=O)c3ccccc3oc2c1 22.4 µM [activator, single point]
CCS(=O)(=O)c1ncc(Cl)c(C(=O)Nc2ccc(S(=O)(=O)N3CCCC(C)C3)cc2)n1 (configuration not stated) 5.62 µM [activator, single point]
COC(=O)c1sc2cccc(F)c2c1S(=O)(=O)Nc1ccc(N(C)C)cc1 15.8 µM [activator, partial curve, poor fit]
Cc1cc(-c2csc(Nc3ccccn3)n2)ccc1F 1.41 µM [activator, partial curve, poor fit]
Cc1ccc(Cc2c(-c3cccc(Br)c3)nc3ccc(Br)cn23)cc1 12.6 µM [activator, single point]
CCN(C(=O)COC(=O)/C=C/c1nc2ccccc2s1)C1CCS(=O)(=O)C1 (configuration not stated) 12.6 µM [activator, partial curve, poor fit]
O=C(CNC(=O)c1ccco1)NCC(=O)OCC(=O)c1ccc(Cl)c([N+](=O)[O-])c1 20 µM [activator, partial curve, poor fit]
Cn1ncc([N+](=O)[O-])c1C(=O)N/N=C/c1cccc([N+](=O)[O-])c1 12.6 µM [activator, single point]
Cc1ccc(C)c(CN2C(=O)c3ccccc3S(=O)(=O)c3ccc(C(=O)NCCCN4CCCC(C)C4)cc32)c1 (configuration not stated) 22.4 µM [activator, single point]
CCN(C(=O)CSc1nnc(-c2ccc(F)cc2)c2ccccc12)C1CCS(=O)(=O)C1 (configuration not stated) 20 µM [activator, single point]
O=c1cc(-c2ccccc2)oc2cccc(O)c12 35.5 µM [activator, single point]
c1cncc(-c2nc(-c3cccs3)cs2)c1 11.2 µM [activator, partial curve]
CCOC(=O)c1ccc(NC(=O)CSc2c3c(nc4cc(Cl)ccc24)CCCC3)cc1 14.1 µM [activator, single point]
COc1cc(/C=C2/CCC/C(=C\c3cc(O)c(OC)c(Cl)c3)C2=O)cc(Cl)c1O 4.47 µM [activator, single point]
O=C(Nc1nc(=O)c2ccccc2s1)c1ccc(F)cc1 1.26 µM [activator, full curve, poor fit]
Cc1cccc(C(=O)O/N=C(\N)c2ccc(Cl)cc2)c1 8.91 µM [activator, partial curve]
CSc1ccc(/C=C/C(=O)c2ccc(NC(C)=O)cc2)cc1 20 µM [activator, single point]
O=C1NC(=S)N/C1=C/c1cc2c(cc1[N+](=O)[O-])OCO2 5.62 µM [activator, single point]
Cc1sc(NC(=O)/C=C/c2ccco2)c(C(=O)O)c1C 11.2 µM [activator, partial curve, poor fit]
CCN(C(=O)c1coc(=O)c(Br)c1)c1ccc2c(c1)OCO2 35.5 µM [activator, single point]
CC1(Oc2ccccc2-c2ccno2)CCN(Cc2ccc(-c3ccccc3)o2)C1 (configuration not stated) 20 µM [activator, single point]
O=C(Nc1nc2ccccc2[nH]1)c1ccccc1 2.51 µM [activator, partial curve, poor fit]
Cc1nnc(Sc2cc(C(=O)NCc3ccco3)c3ccccc3n2)s1 12.6 µM [activator, single point]
Cc1ccccc1Sc1ncnc2onc(C)c12 17.8 µM [activator, single point]
COc1ccc(C(=O)/C=C/c2cc(C(=O)O)cc3c2OCOC3)c(O)c1 3.16 µM [activator, full curve, poor fit]
CC(=O)Nc1ccc(C(=O)CCl)cc1 14.1 µM [activator, single point]
CCOc1cc(/C=C2\COc3ccccc3C2=O)cc(Br)c1OCC(=O)N(C)C 4.47 µM [activator, single point]
N/C(=N\N=C\c1cccc([N+](=O)[O-])c1)c1nonc1N 17.8 µM [activator, partial curve, poor fit]
COc1cc(OC)cc(C(=O)Oc2c(CN3CCOCC3)cc(Cl)c3cccnc23)c1 31.6 µM [activator, single point]
COc1ccc(/C=C2\SC(=S)N(Cc3cccnc3)C2=O)cc1C 3.16 µM [activator, single point]
Cn1c(S(=O)(=O)c2ccc([N+](=O)[O-])cc2)nc(Br)c1Br 25.1 µM [activator, single point]
O=C(NCCCN1CCOCC1)c1cc(-c2ccccc2F)no1 15.8 µM [activator, single point]
Cc1oc(-c2cccs2)nc1CN1CC[C@@](O)(c2ccccc2)[C@H]2CCCC[C@@H]21 20 µM [activator, single point]
Cc1ccc(S(=O)(=O)/N=C(/NC(=S)Nc2ccccc2)c2ccccc2)cc1 20 µM [activator, single point]
CSc1nnc(NC(=O)c2nc(S(=O)(=O)Cc3ccccc3F)ncc2Cl)s1 22.4 µM [activator, single point]
CC(C)(C)OC(=O)N1O[C@H]2C[C@@H]1[C@@H]1[C@@H]2N=NN1C12CC3CC(CC(C3)C1)C2 35.5 µM [activator, partial curve, poor fit]
O=C(O)CCCN1C(=O)/C(=C\C(Cl)=C\c2ccccc2)SC1=S 3.16 µM [activator, partial curve, poor fit]

Potency, inactive:
COc1ccc(CNC(=O)C2CCCN(S(=O)(=O)c3cccc4nsnc34)C2)cc1 (configuration not stated)

activation, inactive:
C[n+]1cccc2c(Br)ccc([O-])c21 -0.428%
Cc1ccc(CN2CCN(Cc3c(C)nn(-c4ccc(F)cc4)c3C)CC2CCO)o1 (configuration not stated) 0.457%
COC(=O)c1ccc(CNC(=O)COC(=O)C2CCC(C(C)(C)C)CC2)cc1 (configuration not stated) -0.479%
COc1ccc(NC(=O)CSc2nc(SC)ns2)cc1 11.1%
Cc1cc(C)nc(SCC(=O)Nc2cccc(S(=O)(=O)N(C)C)c2)n1 3.54%
CCN(C(=O)CSc1ncnc2sc(C)c(C)c12)C1CCS(=O)(=O)C1 (configuration not stated) 0.117%
CCCCSc1nnc2c(n1)OC(c1ccc(Br)s1)N(C(C)=O)c1ccccc1-2 (configuration not stated) 13.5%
COc1ccc([C@H]2C[C@@H](n3cc(-c4ccc(F)cc4)nn3)[C@H](O)CN2C(=O)C2CCCCC2)cc1 2.54%
O=C1CC(c2cccc(O)c2)c2c(nc(SCc3ccccc3F)[nH]c2=O)N1 (configuration not stated) 0.0415%
COc1ccc(/C(C)=N/NC(=O)c2nnn(-c3nonc3N)c2-c2ccccc2)cc1 0.0231%
CC(=O)Nc1ccc(NC(=O)c2nc(S(=O)(=O)Cc3cccc(C)c3)ncc2Cl)cc1 -1.79%
CCOc1ccccc1OCCN1CCCC1 -0.0648%
Cc1ccc(-c2cn3nc(-c4ccccc4)c(-c4ccccc4)nc3n2)cc1 0.393%
Nc1nc2sc3c(c2c(=O)s1)CCCC3 3.32%
Cc1ccc(-n2c(=O)c3c4c(sc3n(Cc3cccc(Cl)c3)c2=O)CCC4)cc1C 0.657%
Cc1csc2nc(COC(=O)c3ccccc3NC(=O)COc3ccccc3F)cc(=O)n12 0.331%
COc1ccccc1/C=C1\SC(=S)N(CCC(=O)NCCCN2CCOCC2)C1=O 27.3%
Cc1ccc(C)c(N2CCN(S(=O)(=O)c3ccc4[nH]c(=O)ccc4c3)CC2)c1 -0.0802%
N#C/C(C(=O)Nc1ccc(Cl)cc1)=C(/S)Nc1ccccc1 -0.956%
COc1cc(OC)cc(C(=O)NCC(=O)OCC(=O)N2CC(C)CC(C)C2)c1 (configuration not stated) -1.08%
Cn1c(=O)oc2cc(S(=O)(=O)NC3CCCCCCC3)ccc21 2.74%
